Data as given in paper PMC12136788.
The list shows a part of the results.

T1: UNK ZnF1-3 (human, UniProt Q9C0B0 31-174)
T1 sequence: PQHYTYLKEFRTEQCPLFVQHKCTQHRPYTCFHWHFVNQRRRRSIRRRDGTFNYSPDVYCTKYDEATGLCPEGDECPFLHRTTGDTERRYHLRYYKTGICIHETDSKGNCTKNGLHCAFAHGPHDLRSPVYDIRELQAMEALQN

B1: chr2:70106199:70106200:+_ENSG00000087338_ENST00000282570|hu_hu|FALSE|FALSE (ssRNA)
RNA: GGGAGUUCUACAGUCCGACGAUCCGAUGUGAAUAUCAGUAGGGCCAUUAAAUUAAAGCUGGCCUAAAAAGUUUUCAAAGUGCUACUGUUUCCAACUGAUGAAAUCUUCAGUUUUCUGGAUUUUCUGGGUGACGAUUAUUUUCACAACAGAGGAUUGAGCAUCA
B2: chr7:151048522:151048523:+_ENSG00000013374_ENST00000566856|hu_mus|hu_hu_hu_mus_True|8_98 (ssRNA)
RNA: GGGAGUUCUACAGUCCGACGAUCCUGUUUCUUAUUUAUGACAAUUUUGAUGUAAUUUUCUUGAAAUCCGAAAGUUUCAGCUAUUUGACACCUCAGGUCUCUACCAGUGACAUGCAAGCGGGUCUCCAACAAGUUUUUCUUAUCCAACAGAGGAUUGAGCAUCA
B3: chr2:32641123:32641124:+_ENSG00000115760_ENST00000421745|hu_hu|motif|central (ssRNA)
RNA: GGGAGUUCUACAGUCCGACGAUCAGUGCCCUCCUUUUUGGGAGGCUCCACUUUGGCCAAAAUUUCAAAGUUUGAAAGAUCGGGUAUUUUUACAUAUCCUCCCUGAGUGGUUAUUACCAGGUGUCCAAGAGUAGAAAUGUCAGACAACAGAGGAUUGAGCAUCA
B4: chr1:220276048:220276049:+_ENSG00000067704_ENST00000302637|hu_hu|hu_hu_hu_mus_True|58_88 (ssRNA)
RNA: GGGAGUUCUACAGUCCGACGAUCGCAAAUUGCCUGGUUGGCGGGAAUCGUCCAAGGCUGGGUGGUCCAAACUAAAAUACUAACAGGGGAUGAGGCAUCUGUAAGAGACUCCAACUUCGGAGGAGGUCUCAGGAGGGGGAAUCUCAACAGAGGAUUGAGCAUCA
B5: chr2:136540380:136540381:+_ENSG00000144224_ENST00000272638|hu_hu|FALSE|FALSE (ssRNA)
RNA: GGGAGUUCUACAGUCCGACGAUCGGAAUUUCCAUUCCAAGUGUUGUUUUCAUCUUCACCAUCAUCUUGAGUCCUUAAUCUAUAAAUUUUCCCCUCCUUUUUAAAGUCGUCUCCACGUUUUUCCAGCACUCUUUUUCUCACUGGCAACAGAGGAUUGAGCAUCA
B6: chr1:39494447:39494448:+_ENSG00000168653_ENST00000372967|hu_mus|hu_hu_hu_mus_False|28_48 (ssRNA)
RNA: GGGAGUUCUACAGUCCGACGAUCGCACCGAGCGGCGUUCUUAUAGGGCUGUUCUGCGCUUAGGAACAUAAAGUGCCGGUCCAGGCUAAGGCCGAACUUUUUCUGUAUGUCCAAGAAAGGCAUGGCUCUGCAGUGCCCUUGUCACAACAGAGGAUUGAGCAUCA
B7: chr2:86371542:86371543:-_ENSG00000132305_ENST00000449247|hu_hu|motif|central (ssRNA)
RNA: GGGAGUUCUACAGUCCGACGAUCCCAGUCCUGUGCCACUCGUCUGGAUUCCCCCUUCAGCUGAUUGACAAACUUUGCUGCGGGCUCCAGAUCACCAUGCUCAAUGCAAUAGGAAGCAUAUGACAGUAAUUUAAAUGUGUUUAUCAACAGAGGAUUGAGCAUCA
B8: chr17:6074196:6074197:-_ENSMUSG00000015659_ENSMUST00000097432|mus_hu|FALSE|FALSE (ssRNA)
RNA: GGGAGUUCUACAGUCCGACGAUCACUUUAUUAUAUUUCUGAUAUCUCUCCAGUGUGUGCCACUUUUUGGUGGGGAAGUAGAGGUUCCUAUUCUUCUGCAACAGAUGACGCAAUAAGCAGCCAGGGACAUUCUGCCGGCAGGCGCAACAGAGGAUUGAGCAUCA
B9: 57138253_57140773_1063_3pUTR_ENSMUSG00000022752_ENSMUST00000166897|mouse|control|control (ssRNA)
RNA: GGGAGUUCUACAGUCCGACGAUCAUCUAUUUCCUUUGAACAUUCACUUAUGAUUUUGUCAUAGUUUUCUUCUUCCAUAUAUUGUUUAGCUUUCAAAUACCCAGAAUUUUCUUUCACUUCUAAAGCCUCUCCCUCCUUGUCUUUCAACAGAGGAUUGAGCAUCA
B10: chr1:244855233:244855234:+_ENSG00000121644_ENST00000302550|hu_mus|hu_hu_hu_mus_True|48_78 (ssRNA)
RNA: GGGAGUUCUACAGUCCGACGAUCCAUCAGAUGGUAGGCGUUGCCCUUAUACUCUUUUCCCAGUUCUUCUACAAUUUUCUCUAUAUCAUCUUCUAGGAAGUCCGUACUUCCUAGAACAACAGCUUCUUUAAAUUUAAAUGUUUCCAACAGAGGAUUGAGCAUCA
B11: chr7:75932113:75932114:+_ENSG00000106211_ENST00000248553|hu_hu|hu_hu_hu_mus_False|58_108 (ssRNA)
RNA: GGGAGUUCUACAGUCCGACGAUCCUGCGACCACUCCUCGGGCAACCGGGGCACCCCGAAAGCUUGAUCGAAGAGGCGGCUAUGCGGAGGGUACCAGUCCCGGAAUGGUUCCCAGCUCGGGCUCCGCAGCAGCGAGAAGGGCACCAACAGAGGAUUGAGCAUCA
B12: chr1:231488893:231488894:+_ENSG00000010072_ENST00000295050|hu_hu|FALSE|FALSE (ssRNA)
RNA: GGGAGUUCUACAGUCCGACGAUCAUUAACCAUUUUGCUCUGACUGGAUGAACUGCUGGAAUUCUGAGCUGUGGUUGUACUAUACUUUGGAUCAUUACCACUGCUUUUUAUUUGCUCUUUCUUGAUAAAAAAAUUGUCAAAAACCAACAGAGGAUUGAGCAUCA
B13: 113297594_113297714_12607_3pUTR_ENSG00000114999_ENST00000233336|human|control|control (ssRNA)
RNA: GGGAGUUCUACAGUCCGACGAUCAAAGAAGGCUGAGAUUCUUGAUCAGGAUUGUGUUCAAUUGGUAGAUCAAUUUGGGGCCUAUUUUCAUCCUAACAAUAAUUAUCUCCCAAUCCAUAAACAUGGGAUGUCUUUCCAUUUAUUCAACAGAGGAUUGAGCAUCA
B14: chr2:9570881:9570882:+_ENSG00000119203_ENST00000238112|hu_hu|motif|central (ssRNA)
RNA: GGGAGUUCUACAGUCCGACGAUCACUUGUCUUCUGUAGAAACCAGGGCAGAGCUCCACAGUGAUCCAAAUGGAAAUGACGGAUUAAUAGGAGAUCAAUCUCAGCUGGGUCAAUUAAAUCAAUAUAAGGAAGAGCAUCCAUUCCCAACAGAGGAUUGAGCAUCA
B15: chr17:23954396:23954397:+_ENSMUSG00000039218_ENSMUST00000088621|mus_mus|motif|central (ssRNA)
RNA: GGGAGUUCUACAGUCCGACGAUCCUCUUUUAAUUCAGAAGGCUCCAAUCUGCUCUGCACCAGAAAAGAUUUAGAGUCGGCGGAAGGAUAUAUGCUAGAGUCAGGUUUAGUCUUACUCUGCUCAGGAGACAUUCCUGACUUCAGCAACAGAGGAUUGAGCAUCA
B16: chr17:35971825:35971826:-_ENSMUSG00000001525_ENSMUST00000001566|mus_mus|FALSE|FALSE (ssRNA)
RNA: GGGAGUUCUACAGUCCGACGAUCUGAGUGCCUGCCAUGUGCCAGGCACCAUUUACCCCCAAUGAGAAAACAGAACAAAACAAAUACAAGACAGAGGCAGCAGAAAGAAACUGGAGGACAAAGGGCAGUUGGAGAAAGCUGAGGCAACAGAGGAUUGAGCAUCA
B17: chr1:82408827:82408828:+_ENSG00000117114_ENST00000319517|hu_hu|FALSE|FALSE (ssRNA)
RNA: GGGAGUUCUACAGUCCGACGAUCAUCUACUCGAUUUGGAAGUUUAUAUGUUGUUGUUUGGCGACUAUUUUGGAAAUCUUCUAAAGAAGCAUAUUCUAUUAAAGUAUCGGUACGAUAGGGAGUCCAGGGCAUGAAAUAAAUUUUCAACAGAGGAUUGAGCAUCA
B18: chr6:38489255:38489256:+_ENSMUSG00000019689_ENSMUST00000019833|mus_hu|motif|central (ssRNA)
RNA: GGGAGUUCUACAGUCCGACGAUCACGAGUUGUAUCUCCCUUGCCAUGAAAUUCCUGAUGUAGGGCCACAUGUUUCCGGAUGCGGCGCAGGAGGCAGAGAUAGGUGGCAGCUUGGAAAUGAAGCUCAUGUUGGGCUCUGCACAACAACAGAGGAUUGAGCAUCA
B19: 110453951_110455679_4471_CDS_ENSMUSG00000044791_ENSMUST00000153838|mouse|control|control (ssRNA)
RNA: GGGAGUUCUACAGUCCGACGAUCUCUUUCAUCCUUAGAAAGAGGUGUACACUCACACUGCAUUCGCUUAAUAUCCCGGUGGGAUUUGUUCUUCUUCCUUUCUGUUAAAUAAACAUUUUCUUCAAUAAGAUCAAAGUAACAUGGCAACAGAGGAUUGAGCAUCA
B20: 140882688_140882808_658_ncRNA_ENSMUSG00000030979_ENSMUST00000135760|mouse|control|control (ssRNA)
RNA: GGGAGUUCUACAGUCCGACGAUCAACUCUGCCUGAACAUGGUCACGUCUGCCUCCUGGGUCUCAGGACCAUCUUUAGAGGUGUCCUUAGCUAAUUCUAGUCACCUUUGUCCUUGAGCAUUUUUGGAAGAGUAUCUCCUUUGAUCAACAGAGGAUUGAGCAUCA
B21: chr11:78564483:78564484:-_ENSMUSG00000049489_ENSMUST00000059468|mus_mus|motif|central (ssRNA)
RNA: GGGAGUUCUACAGUCCGACGAUCAAUCUGAAUGAGAUCAGACACAAUAUUGUCAAUGAUUGGCUUGGUAAGGUCAUCACGGAAUACCUGCCACCAAGGCUUCUCGGCCUCACCCUCUGCAGGCACCUCGACUCCAUAGACCUGCAACAGAGGAUUGAGCAUCA
B22: chr11:86546118:86546119:-_ENSMUSG00000047126_ENSMUST00000103186|perfect_dup|FALSE|FALSE (ssRNA)
RNA: GGGAGUUCUACAGUCCGACGAUCUGCAAAACAAAAUAACGUUGAUUCUUCUGCAUUUCCUUCCAUCUUAAACUGUGCAAAGCUAGCUGCAUGUCCUUCAAUGGGCUGAGACACUUUCCUAUCUACAGAAUAUAGCUGCAUAGCCAACAGAGGAUUGAGCAUCA

biological target: T1, UNK ZnF1-3; test: nsRBNS (natural sequence RNA bind-n-seq); RBNS binding buffer (assumed for nsRBNS): 25 mM Tris pH 7.5, 150 mM KCl, 3 mM MgCl2, 0.01% Triton X-100, 500 ug/ml BSA, 20 U/ml SUPERase-In, 4 C; UNK is unkempt and MSI1 is Musashi-1; names of the RNAs are library labels; protein concentration not given here; high values mean tight binding

Going from B1 to B2, the binding signal rises from 0.683 enrichment R to 0.725 enrichment R.

Compared with B3, B4 is higher in binding signal: 0.684 enrichment R for the first, 1.82 enrichment R for the second.

First: B5
Second: B6
The binding signal of the first is lower: 0.476 enrichment R for the first, 0.814 enrichment R for the second.

Compared with B7, B8 is higher in binding signal: 0.946 enrichment R for the first, 1.14 enrichment R for the second.

Compared with B9, B10 is higher in binding signal: 0.414 enrichment R for the first, 1.29 enrichment R for the second.

First: B11
Second: B12
The binding signal of the first is higher: 1.11 enrichment R for the first, 0.775 enrichment R for the second.

First: B13
Second: B14
The binding signal of the first is lower: 0.825 enrichment R for the first, 2.73 enrichment R for the second.

Compared with B15, B16 is higher in binding signal: 0.723 enrichment R for the first, 2.41 enrichment R for the second.

Compared with B17, B18 is lower in binding signal: 1.04 enrichment R for the first, 0.842 enrichment R for the second.

Compared with B19, B20 is lower in binding signal: 1.12 enrichment R for the first, 0.684 enrichment R for the second.

First: B21
Second: B22
The binding signal of the first is lower: 0.685 enrichment R for the first, 1.27 enrichment R for the second.
